According to publication PMC9574860, “Chemical Toolkit for PARK7: Potent, Selective, and High-Throughput” (Journal of Medicinal Chemistry, 2022):
Out of some 7,900 compounds screened, about 400 (5.1%) showed an effect of 50% or more. Some of the results follow.

Target: Parkinson's disease protein 7 (PARK7/DJ1) (human, UniProt Q99497)
Assay: primary screen, percent inhibition; read as competition with a fluorescent probe by fluorescence polarization; higher = more effect of the substance
Details: 100 µM
Method in brief: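 Covalent fragments at 100 μM final were incubated 2 h with 0.2 μM PARK7, then 20 nM probe JYQ-107 added for a further 2 h. Fluorescence polarization read at 480/520 nm; relative FP loss versus reference controls gave remaining enzyme activity.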

Sequence of Parkinson's disease protein 7 (PARK7/DJ1) (Q99497 whole entry, looked up): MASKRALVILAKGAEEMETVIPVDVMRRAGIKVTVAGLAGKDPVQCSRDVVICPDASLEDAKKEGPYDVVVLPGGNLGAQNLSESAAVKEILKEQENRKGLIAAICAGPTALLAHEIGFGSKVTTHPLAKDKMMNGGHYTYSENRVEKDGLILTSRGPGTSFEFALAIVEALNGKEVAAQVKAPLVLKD

Row | SMILES | Inhibition %
1 | O=S(=O)(F)CCn1nnc2ccccc21 | 8.8%
2 | O=C(O)C=CC(=O)N1CCOCC1 | 21.1%
3 | CCOCCCN1C(=O)CN=C1S | 10.3%
4 | N#Cc1ccc(CC(=O)O)cn1 | 4.36%
5 | Cc1ccc(C(=O)Cn2cnc(C#N)n2)cc1C | -0.877%
6 | CN1CCN(C(=O)C=Cc2c(Cl)nc3ccccn23)CC1 | 9.8%
7 | C=CC(=O)N(C)C1Cc2ccccc2C1 | 5.96%
8 | CC1(C)OB(c2cncc(-n3cccn3)c2)OC1(C)C | 9.82%
9 | Cl.SC1CCCN(Cc2ccccc2)C1 (stereo not shown) | 24.1%
10 | CC(C)(C)OC(=O)N1CCC(CB2OC(C)(C)C(C)(C)O2)C1 (stereo not shown) | 3.29%
11 | O=C(CCl)NC1CCCCC1C(F)(F)F (stereo not shown) | 12.8%
12 | C=CC(=O)N1CCS(=O)(=O)C2CCCCC21 (stereo not shown) | 5.02%
13 | O=C(CCl)Nc1cc([N+](=O)[O-])ccc1Cl | 16.6%
14 | O=C(O)c1ccc(CN2C(=O)CSC2=O)cc1 | 47.9%
15 | Cc1c(Cl)cccc1B1OC(C)(C)C(C)(C)O1 | 1.79%
16 | C=CC(=O)N1CC(n2nc(C)nc2C)C1 | 9.38%
17 | CN(CCOc1ccccc1F)c1cccnc1C#N | 40.3%
18 | Cc1nc(C#N)c(N)nc1Cl | 10.2%
19 | CN(C)c1ncc(B2OC(C)(C)C(C)(C)O2)cc1Cl | 0.0857%
20 | C=CCNC(=O)C(C#N)=Cc1sccc1C | 2.32%
21 | COc1ccccc1C=C(C#N)S(C)(=O)=O | 8%

Row | SMILES | Inhibition %
22 | COc1cc(C)c(S(=O)(=O)n2cccn2)cc1C(C)C | 1.74%
23 | C=CC(=O)Nc1ccnn1-c1ccccc1C | 17.7%
24 | O=c1c2ccccc2ccn1CCS(=O)(=O)F | 95.1%
25 | C=CC(=O)N1CCCOc2ccccc21 | 4.84%
26 | CN(Cc1cccc(Cl)c1)C(=O)CCl | 49.6%
27 | COc1ccc(NC2C=CS(=O)(=O)C2)cc1 (stereo not shown) | 17%
28 | O=C(CCl)Nc1ccc(Cl)cc1C(=O)O | 52.4%
29 | CCOc1cc(S(=O)(=O)n2ccnc2)ccc1Cl | 4.34%
30 | Cc1nc(C=CC(=O)N2CCC(C)(C(=O)O)C2)cs1 (stereo not shown) | 5.72%
31 | CCn1cc(B2OC(C)(C)C(C)(C)O2)c(C)n1 | 6.39%
32 | COc1ccc(C(C)C)cc1S(=O)(=O)n1ccnc1 | 9.91%
33 | C=CC(=O)N1CCC(F)CC1 | 12.5%
34 | COc1ccc(C(Cl)=CC#N)cc1 | 3.52%
35 | Cc1occc1C(=O)C(C#N)=Cc1cnn(C)c1 | 11.6%
36 | C=CC(=O)N1CCCC(c2nc(C(F)(F)F)cs2)C1 (stereo not shown) | 15.5%
37 | NC(=O)n1cc(C(=O)c2cc(Cl)ccc2O)cn1 | 5.53%
38 | NS(=O)(=O)c1cccc(NC(=O)CCCl)c1 | 4.37%
39 | N#CC(=Cc1cccs1)C(=O)NCc1ccco1 | 1.56%
40 | CC(C)NC(=O)C(C#N)=Cc1ccc2c(c1)OCCO2 | 0.585%
41 | C=CC(=O)NCCc1nnc2n1CCCCC2 | 8.54%
42 | C=CC(=O)N1CCC(C)C2CCCCC21 (stereo not shown) | 9.24%

Row | SMILES | Inhibition %
43 | C=CC(=O)N1CCc2sccc2C1C (stereo not shown) | 2.93%
44 | CS(=O)(=O)N1CCCC(CCl)C1 (stereo not shown) | 4.56%
45 | C=CC(=O)N1CCN2C(=O)CCC12c1ccccc1 (stereo not shown) | 27.7%
46 | O=C(O)C=Cc1ccncn1 | 12.8%
47 | C=C(C(=O)O)c1ccccc1F | 3.02%
48 | C=CC(=O)N1CCN(Cc2ncon2)CC1 | 12.2%
49 | N#Cc1cc(N2CCCC2CF)ccn1 (stereo not shown) | 19.7%
50 | O=C(CN1CCSC1=O)Nc1ccc(F)cc1Cl | 5.37%
51 | CC(=O)Nc1cccc(OC(=O)N2CCOCC2)c1 | 5.06%
52 | CSc1ccccc1NC(=O)CCCl | 5.4%
53 | COc1sccc1B1OC(C)(C)C(C)(C)O1 | 14.3%
54 | CC1CC(C)CC(B2OC(C)(C)C(C)(C)O2)C1 (stereo not shown) | 7.39%
55 | C=CC(=O)Nc1cccc(C(F)F)c1 | 6.09%
56 | Nc1cccnc1S | 101%
57 | Cc1ccc(S(=O)(=O)OCC2CCCCO2)cc1 (stereo not shown) | 16.8%
58 | O=C(c1cc(F)cc(F)c1)N1CCCCC1C1OCCO1 (stereo not shown) | 3.28%
59 | CC(=O)N(c1ccc(Cl)cc1)C1C=CS(=O)(=O)C1 (stereo not shown) | 7.19%
60 | C=CC(=O)N1CC(=O)N(Cc2ccccc2)C1 | 8.41%
61 | N#Cc1nc(C2CC2)oc1N1CCNCC1 | 1.83%
62 | N#Cc1nccc(O)n1 | 29.6%
63 | CC(c1nc2ccccc2s1)N(C)C(=O)CCl (stereo not shown) | 97.3%

Row | SMILES | Inhibition %
64 | COC(=O)Nc1ccc(S(=O)(=O)F)cc1 | 34.7%
65 | FC(F)(F)c1ccnc(S)c1 | 29.6%
66 | C1CC(OCC2CO2)CCO1 (stereo not shown) | 4.06%
67 | NC(=O)c1cnc(S)nc1O | -0.398%
68 | C=C(CO)C(=O)NC1CCCCCCC1 | 25.3%
69 | Cc1ccnc(NS(=O)(=O)c2ccc(S(=O)(=O)F)cc2)c1 | 16.1%
70 | NC(=O)COc1ccc(C(=O)CCl)cc1 | 5.31%
71 | O=S(=O)(CCCl)c1ccccc1 | 4.74%
72 | Cc1ccccc1C(=O)N1CCCCC1C1OCCO1 (stereo not shown) | 6.11%
73 | CCOC(C)n1nccc1B1OC(C)(C)C(C)(C)O1 (stereo not shown) | 10.5%
74 | CC1(C)C2CN(C(=O)CCc3ccc(S(=O)(=O)F)cc3)CC21 (stereo not shown) | 38.6%
75 | O=C(Nc1cnc(C2CC2)nc1)c1cccnc1S | 7.43%
76 | O=C(CCl)Nc1ccc2c(c1)OC1(CCCC1)O2 | 78.4%
77 | N#Cc1cccnc1S | 11.9%
78 | Cc1ccc(C)c(S(=O)(=O)n2nc(C)cc2C)c1 | 1.62%
79 | Cn1cc(C2NC(=O)C23CCC3)cn1 (stereo not shown) | 9.37%
80 | N#Cc1ccn(CO)n1 | 6.29%
81 | C=CC(=O)N1CCN(c2nccnc2C)CC1 | 10.6%
82 | C=CC(=O)NCC1CC2C=CC1CC2 (stereo not shown) | 9.57%
